“Also recorded” adds a separate entry of the source.
Columns and labels:
Assay type in all cases: cell-based, human
[1] = system: CMV infected fibroblast cells killed by CTLs targeted to the pp65 (495-503) epitope; assay: Cytotoxicity assay: blocking of CTL-mediated killing; settings: CMV infected fibroblasts 72 h, target:effector 1:10, five hours
Description: Cytotoxicity assay—Target cells were cultured in 48-well plates in DMEM medium plus 10% FCS and were grown up until confluent. Cells were washed and incubated overnight with 15 μCi/ml (1 Ci 37 GBq) [35^S] methionine (NEN). After 1 hour of incubation with the IgG H9 (10-20 μg/ml or the indicated concentration at 37° C.), effector CTL cells were added at a target:effector ratio of 1:3 respectively and incubated for 5 hours at 37° C. After incubation, [35^S] methionine release from target cells was measured in a 50-μl sample of the culture supernatant. All assays were performed in triplicate.
Briefly, fibroblast cells were radioactively labeled with S^35-methionine before infection with the CMV virus and 72 hours later the cells were incubated with H9 Ab. CTLs from a line targeted to the pp65 (495-503) epitope were added at a target (i.e., fibroblast cells)—effector (i.e., CTL) ratio of 1:10 and incubated for five hours. Cells incubated with anti-HLA-A2 W6/32 MAb were used as positive control, while cells without any Ab incubation served as a reference for maximal killing.

[2] = system: HLA-A2/pp65 495-503 complexes in fibroblasts infected with CMV AD169 or RV798; assay: Kinetic flow cytometry of HLA-A2/pp65 complex expression, intracellular and extracellular staining
[3] = system: HLA-A2/pp65 complexes in CMV infected fibroblasts; assay: Confocal microscopy of fibroblasts
Description: Confocal microscopy—Infected and noninfected fibroblast cells were fixed for 10 minutes with 0.5% paraformaldehyde, and washed twice with PBS containing 0.1% bovine serum albumin (BSA). The cells were permeabilized and incubated with anti pp65 mAb, H9 IgG, anti calnexin (Chemicon, cat. No. MAB3126), and/or cis-golgi matrix protein (GM130) (BD transduction laboratories, cat No. 610822) in the presence of a PBS medium containing 0.05% saponin, 1% fetal bovine serum, and 0.1% BSA, for 40 minutes at 4° C. Cells were subsequently washed and further incubated with goat anti mouse secondary Ab conjugated to Alexa-flour^594 (Molecular Probes, cat. No. A21216), and goat anti human secondary Ab conjugated to Alexa-flour^488 (Molecular Probes, cat. No. A11013), respectively. DRAQ5 (Alexis Biochemicals) was added to the stained cells before they were washed again. Images were collected on a LSM 510 META laser scanning microscope (Carl Zeiss Microimaging Inc) using a ×63 oil immersion objective numerical aperture 1.32, at different zoom factors. Alexa Fluor^488 was excited using an argon laser at 488 nm. Alexa Fluor^594 was excited using a krypton laser at 568 mm. Differential interference contrast images were collected simultaneous with the fluorescence images using the transmitted light detector. Z stacks of images were collected using a step increment of 0.3 μm between planes. […]

[4] = system: HLA-A2/pp65 complexes in PBMCs of BMT patients under reactivation of CMV infection; assay: Flow cytometry of PBMCs from BMT patients and healthy donors
Description: Isolation of PBMCs—Samples of 20-30 ml blood obtained from healthy donors or BMT patients, containing 500 units (U) of heparin was added to 50 ml sterile tubes containing 15 ml Lymphoprep™ (Axis shield PoC AS, Oslo Norway). The blood was added gently without mixing between the Ficoll and the blood. The tubes were centrifuged for 30 minutes at 1000 g without brakes. The upper layer that contains the serum was removed and the Buffy coat that contains the peripheral blood mononuclear cells (PBMCs) was transferred to new tubes. The PBMCs were washed twice with 40 ml of phosphate buffer saline (PBS) and 2 mM EDTA (centrifuged at 700 g for 8 minutes). The PBMCs were resuspended in 20 ml PBS, counted, centrifuged at 500 g for 8 minutes and resuspended in PBMCs medium at 1-5×10^6 cells/ml. About 70×10^6 cells are isolated from a total of 50 ml blood sample.
The ability of the H9 Ab to detect HLA-A2/pp65 complexes was further evaluated in heterogeneous population of cells taken from CMV infected individuals. Briefly, samples were taken from bone marrow transplanted (BMT) patients whom are under reactivation of CMV infection due to immuno-suppression. Healthy donors were used as a control to verify the H9 Fab specificity.
Peripheral blood mononuclear cells (PBMCs) were isolated from samples taken from BMT patients and healthy donors. The isolated cells were stained with the H9 Ab and the secondary anti human alexa fluor^488 Ab. For intracellular staining with the H9 Ab, the cells were permeabilized as described under “General Materials and Experimental Methods”.

Row | Molecule | blockage of killing by the CTLs [1] | staining of HLA-A2+ cells infected with wild-type AD169 over time ([2]; 36, 72, 96, 120 hours, intracellular and cell surface) | reactivity with uninfected HLA-A2 positive cells ([2]; inside and on the cell surface) | staining of control noninfected cells [3] | extracellular staining of PBMCs ([4]; BMT patients or healthy controls, cell surface) | intracellular staining of PBMCs from BMT patients ([4]; permeabilized cells) | intracellular staining of PBMCs from healthy donors ([4]; permeabilized cells)
1 | H9 IgG Ab: whole IgG molecule made from recombinant H9 Fab, produced in HEK293 cells (antibody, left off: a dimerising Fc or GST) heavy: EVQLVQSGAEVKKPGSSVKVSCKASGGTFSSYAISWVRQAPGQGLEWMGGIIPIFGTANYAQKFQGRVTITADESTSTAYMELSSLRSEDTAVYYCARGDLYYYDSSGYPRYYFDYWGQGTLVTVSSASTKGPSVFPLAPSSKSTSGGTAALGCLVKDYFPEPVTVSWNSGALTSGVHTFPAVLQSSGLYSLSSVVTVPSSSLGTQTYICNVNHKPSNTKVDKKVEPKSC light: LETTLTQSPGTLSLSPGERATLSCRASQSVSSSYLAWYQQKPGQAPRLVIYGASSRATGIPDRFSGSGSGTDFTLTISRLEPEDFAVYYCQHYSTSPGFTFGQGTKLEIRRTVAAPSVFIFPPSDEQLKSGTASVVCLLNNFYPREAKVQWKVDNALQSGNSQESVTEQDSKDSTYSLSSHQGLSSPVTKSFNRGEC | ~60% | specific and gradual increase in staining | not reactive |  |  |  | 
2 | H9 Ab: H9 antibody, form not specified at the place; CDRs SEQ ID NOs:24-26 (heavy) and 30-32 (light) (antibody, left off: a dimerising Fc or GST) heavy: EVQLVQSGAEVKKPGSSVKVSCKASGGTFSSYAISWVRQAPGQGLEWMGGIIPIFGTANYAQKFQGRVTITADESTSTAYMELSSLRSEDTAVYYCARGDLYYYDSSGYPRYYFDYWGQGTLVTVSSASTKGPSVFPLAPSSKSTSGGTAALGCLVKDYFPEPVTVSWNSGALTSGVHTFPAVLQSSGLYSLSSVVTVPSSSLGTQTYICNVNHKPSNTKVDKKVEPKSC light: LETTLTQSPGTLSLSPGERATLSCRASQSVSSSYLAWYQQKPGQAPRLVIYGASSRATGIPDRFSGSGSGTDFTLTISRLEPEDFAVYYCQHYSTSPGFTFGQGTKLEIRRTVAAPSVFIFPPSDEQLKSGTASVVCLLNNFYPREAKVQWKVDNALQSGNSQESVTEQDSKDSTYSLSSHQGLSSPVTKSFNRGEC |  |  |  | no staining | did not detect; also recorded: No detection | significant binding; also recorded: significant specific staining | no staining
